We go through 84 variants from the RNAGym collection of RNA variant scans (doi:10.1093/nar/gkz1192).

Read counts are not given, so values of variants with three or more changes are uncertain.

The labels stand for the following.
B1: CPEB3 Ribozyme (parent)
chain: UAACAGGGGGCCACAGCAGAAGCGUUCACGUCGCAGCCCCUGUCAGAUUCUGGUGAAUCUGCGAAUUCUGCUGUAUAUCUC

The variants in the series derive from B1. Briefly: self-cleavage, relative activity (ratio to wild type); higher = more cleavage; in vitro, sequencing. The essentials:
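Barcoded CPEB3 ribozyme mutants, produced by rounds of error-prone PCR, self-cleaved while being transcribed with T7 RNA polymerase for 5 hours at 37°C and during a subsequent 15 min DNase I step before EDTA was added. Sequencing of template-switched cDNA on Illumina gave cleaved and total reads, and DNA sequencing assigned barcodes to variants. Each variant's relative activity is its cleaved/total read fraction divided by the unmutated ribozyme's fraction, averaged across three batches. A variant needed a minimum of 5 reads.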
Take A15U A35U U43C U51C A57C: the self-cleavage amounted to 0.1.
The same measure for A15U A64G C79A: 0.98; for A15U C38G A45G: 0.16; for A15U G30A U74C: 0.09.
Turning to A15U A21C U60C A75U, the self-cleavage turned out to be 0.11.
With A15U A75U U78C, the self-cleavage stood at 0.56.
In the case of A15U C38U U51A A56G U80C, the self-cleavage worked out at 0.32.
With A15U A64C A77U U78C, the self-cleavage came to 0.16.
With A15U A20G U26C U43A A47G A56G U67C, the self-cleavage came out at 0.06.
Turning to A15U G19C U74C, the self-cleavage was found to be 0.21.
In the case of A15U A20G U26C A35G, the self-cleavage was found to be 0.58.
As to A15U A20U A35U U43C U60A, the self-cleavage is 0.14.
For A15U A28G U31A U51C C81A, the self-cleavage was determined as 0.11.
The same measure for A15U A28G U49C: 0.12.
The value for A15U A35G U54C A64G U80A was 1.25.
The same measure for A15U A21G G24A U26C U41C U54C A64G: 0.12.
Take A15U A28G U43C: the self-cleavage was 0.08.
The same measure for A15U A21G U25C U43C A47C A56U U69C: 0; for A15U U25A U43C: 0.07.
Take A15U C27A U41C U54C: the self-cleavage stood at 0.13.
Regarding A15U A20G U48C A64G A65G U78A, the self-cleavage came out at 0.04.
Consider A15U A28C A35G U72C U78C, for which the self-cleavage came to 0.49.
For A15U A35U U48C U51A, the self-cleavage came to 0.1.
Consider A15U A21G C23U, for which the self-cleavage came out at 0.16.
As for A15U A21G A45U U69A, the self-cleavage came to 0.14.
Regarding A15U A28U U31C, the self-cleavage amounted to 0.47.
Regarding A15U U25C U26C C62U, the self-cleavage was found to be 0.2.
The value for A15U A56G U67C U69A was 0.11; that for A15U A20G U25C was 0.35.
The value for A15U A21U U48C A56G U76C was 0.06; that for A15U A21G A47G U66C was 0.95.
Turning to A15U G16U A28U C39U G53A U69C U78C, the self-cleavage was determined as 0.06.
Take A15U C32U U41A U80C: the self-cleavage came to 0.21.
On to A15U A20G A28G A35G U66C U80A, for which the self-cleavage came to 0.18.
As to A15U C27G A57G U74C, the self-cleavage stood at 0.35.
The same measure for A15U A28G U43C A45U A77U: 0.07; for A15U A20G A35U U72C: 0.47; for A15U A45U U48C: 0.5.
For A15U G19U A45G A47G U48C A56U A64U, the self-cleavage came to 0.03.
As for A15U G33A U54A A65U, the self-cleavage came out at 0.16.
The value for A15U C23U A35G C62A was 0.1; that for A15U A35U A56G U74A was 0.61; that for A15U A20G A35G U41C U67C was 1.14.
As for A15U G52A A64G U78A, the self-cleavage turned out to be 0.98.
The same measure for A15U G33A U41A U67C: 0.4.
For A15U A20G U51A U58C, the self-cleavage was determined as 0.19.
In the case of A15U G19A U58G U66C, the self-cleavage is 0.15.
A15U A20G G36U U48C: the self-cleavage was 0.1.
The value for A15U A28U U54A C79A was 0.95; that for A15U G52U U67C was 0.12.
The same measure for A15U A47G U67A: 0.13.
Turning to A15U A21G C27A G33A A56G A57G, the self-cleavage was 0.06.
Take A15U C29A G63A C81U: the self-cleavage was found to be 0.14.
A15U C23U A35G: the self-cleavage was 0.87.
The value for A15U A21G U54A U76A A77U was 0.28.
The same measure for A15U A28G U43C C50U U58C: 0.07; for A15U C44A A75G: 0.04.
The same measure for A15U G33A U54C A65G U67C U72C U78C: 0.05.
Take A15U G70C U80C: the self-cleavage turned out to be 0.17.
With A15U A21U A64G, the self-cleavage came out at 0.17.
The value for A15U A56G U72C was 0.75; that for A15U A20U U25C was 0.36; that for A15U C23G A35G U41A U49C U67A was 0.29.
A15U A28G U31C A45U C62G U69A: the self-cleavage is 0.07.
As for A15U G22C U74C, the self-cleavage is 0.13.
The same measure for A15U A35G A65G: 1.05; for A15U A45G A56C A57G U74A: 0; for A15U G73U U78C: 1.28.
In the case of A15U A21G A35G U58C, the self-cleavage was 0.67.
Take A15U A20U U25C A35G U41C U67C U74C: the self-cleavage was 0.11.
The same measure for A15U A35G U43C A45U: 0.94; for A15U A35G U43C A45G: 1.24.
The same measure for A15U A28G U43A U54C: 0.45; for A15U A65U U74A: 0.14.
The value for A15U C40U U43C U48C U60A U67C was 0.09; that for A15U U25C A35U C44U U54A A77U was 0.23; that for A15U A35G U41C U66C was 1.07.
Turning to A15U A57G U76C, the self-cleavage came to 1.09.
As for A15U A28G C68U U69C, the self-cleavage turned out to be 0.13.
As for A15U G61A U67A, the self-cleavage turned out to be 0.17.
Regarding A15U A20G A35U, the self-cleavage was determined as 0.52.
The same measure for A15U A47G U58C A65G: 0.12; for A15U A21G U25C U72C: 0.08; for A15U A45U G46A: 0.08.
